Measurements taken from PubChem BioAssay AID1030 (National Center for Advancing Translational Sciences (NCATS), 2008).
The whole screen tested about 220,000 compounds, of which about 16,000 (7.3%) were called active. Inconclusive results, whose numbers are uncertain, are shown with a selection of clear calls. The call rests on the fitted dose curve; in most records, active means well fitted inhibition curve with a large enough effect (not every such curve was filed as active); inconclusive means small, poorly fitted or top-dose-only effect, or another doubt; inactive means no such curve, though single readings can be large or run the other way. No potency is given beside an inconclusive call; the fits are too rough.

target: Aldehyde dehydrogenase 1A1 (Homo sapiens) (UniProt P00352); test: qHTS Assay for Inhibitors of Aldehyde Dehydrogenase 1 (ALDH1A1); conditions: Purified ALDH1A1, NADH fluorescence, propionaldehyde substrate; series mostly up to 75.3 µM
Potency means the concentration at half of the fitted maximal effect; tags describe the fitted curve by direction and shape.

Chain of UniProt P00352 (P00352 whole entry, looked up): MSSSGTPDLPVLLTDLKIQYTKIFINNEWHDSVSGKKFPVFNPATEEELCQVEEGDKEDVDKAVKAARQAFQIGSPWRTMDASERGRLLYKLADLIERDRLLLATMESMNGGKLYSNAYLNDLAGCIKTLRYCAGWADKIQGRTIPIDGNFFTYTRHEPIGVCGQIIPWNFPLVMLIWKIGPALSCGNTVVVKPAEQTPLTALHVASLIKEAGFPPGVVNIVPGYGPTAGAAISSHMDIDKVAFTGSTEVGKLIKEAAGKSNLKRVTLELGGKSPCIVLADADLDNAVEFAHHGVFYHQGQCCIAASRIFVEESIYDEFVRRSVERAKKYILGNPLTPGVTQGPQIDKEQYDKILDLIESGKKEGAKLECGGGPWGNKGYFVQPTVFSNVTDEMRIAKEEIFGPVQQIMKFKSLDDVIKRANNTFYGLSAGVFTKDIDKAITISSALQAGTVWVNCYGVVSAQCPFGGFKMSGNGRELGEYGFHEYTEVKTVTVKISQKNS

Compound | Potency
COc1ccccc1/C=N/NC(=O)CNC(=O)c1ccc(S(=O)(=O)N2CCCC2)cc1 | inconclusive [inhibitor, single point]
O=C(NNS(=O)(=O)c1ccc(F)cc1)C1CC(c2cccnc2)=NO1 (stereo not given) | inconclusive [inhibitor, single point]
CC(=O)N1N=C(c2ccc(C)o2)CC1c1ccc(F)cc1 (stereo not given) | inconclusive [inhibitor, single point]
Cc1ccc(/C=C2\Oc3cc(OC(=O)N4CCOCC4)ccc3C2=O)cc1 | inconclusive [inhibitor, partial curve]
C/C(=N\Nc1nc(N)cc(Cl)n1)c1ccc(Cl)c(Cl)c1 | inconclusive [inhibitor, single point]
CN(c1ncc(C(F)(F)F)cc1Cl)N1C(=O)c2cccc([N+](=O)[O-])c2C1=O | inactive
COc1ccc(-c2nc(C#N)c(NCc3ccccc3Cl)o2)cc1 | inconclusive [inhibitor, partial curve]
CC(C)c1nnc(SCC(=O)N2CCN(C(=O)c3ccco3)CC2)n1N | inconclusive [inhibitor, partial curve]
Cc1ccc(-c2nc(CSc3nc4ccccc4c(=O)n3C)cs2)cc1 | inconclusive [inhibitor, single point]
O/N=C/c1ccc2ccccc2c1 | inconclusive [inhibitor, single point]
N#C/C(=N\Nc1ccccc1F)c1nc(-c2ccccc2)cs1 | inactive
CNCCCOc1cccc(OC(C)C)c1 | inconclusive [inhibitor, partial curve]
COc1ccc(CCNC(=O)c2nnn(-c3ccc4c(c3)OCCO4)c2N)cc1OC | inconclusive [inhibitor, single point]
CCc1nnc(SCC(=O)Nc2ccccc2Cl)nc1CC | inconclusive [inhibitor, single point]
CCCCC(NC(=O)c1ccccc1)C(=O)OCC(=O)N1c2ccccc2Sc2ccccc21 (stereo not given) | active: 39.8 µM
O=[N+]([O-])c1cccc(N/N=C/c2cccc3ccccc23)c1 | inconclusive [inhibitor, single point]
CCc1ccccc1NC(=O)CN(C)C(=O)CSc1nn(-c2ccc(F)cc2)c(=S)s1 | inconclusive [inhibitor, partial curve]
Cc1ccc(-n2c(Cn3nc(C(F)(F)F)cc3C)n[nH]c2=S)cc1 | inconclusive [inhibitor, single point]
O=C(NCc1ccco1)c1cc2sccc2n1Cc1ccc(F)cc1 | inactive
Nc1cc2nc3ccccc3oc-2cc1=O | inconclusive [inhibitor, single point]
COc1ccc(C(=O)Nc2nnc(-c3ccco3)s2)cc1 | inactive
C1=C(c2ccc(-c3ccccc3)cc2)Nc2ncnn2C1c1ccco1 (stereo not given) | inconclusive [inhibitor, partial curve]
Nc1nnc(SCC(=O)NN2C(=O)NC3(CCCCC3)C2=O)s1 | inactive

Compound | Potency
COc1ccc(OC)c(C2Nc3nc4ccccc4n3C(C)=C2C(=O)Nc2ccc(C)cc2C)c1 (stereo not given) | inactive
CNC(=O)CN(c1cc(OCCOC)c(Cl)cc1Cl)S(=O)(=O)c1ccc(OC)cc1 | inconclusive [inhibitor, single point]
O=C(CSc1nc2ccccc2o1)Nc1cc(C(F)(F)F)ccc1N1CCOCC1 | inactive
Cc1ccc(S(=O)(=O)c2ccc(Oc3cccc(C)c3)cc2)cc1 | inactive
Cc1nnc(SCc2cc(=O)[nH]c(N3CCN(Cc4ccccc4)CC3)n2)s1 | inconclusive [inhibitor, full curve]
Cc1ccc2c(c1)c(-c1ccccc1)nc1nncn12 | inactive
Cc1cc(C)c2cc(CN(Cc3cccs3)Cc3nnnn3CC3CCCO3)c(=O)[nH]c2c1 (stereo not given) | active: 11.2 µM
O=C(COC(=O)c1ccc(NS(=O)(=O)c2ccc3c(c2)OCCO3)cc1)NCC1CCCO1 (stereo not given) | inactive
CCN1CCN(C(=S)NC(=O)/C=C/c2cccs2)CC1 | inactive
O=C(CCN1CCN(CC(=O)Nc2ccccc2F)CC1)Nc1ccccc1F | inconclusive [inhibitor, single point]
Fc1ccc(Sc2cc(Cl)c(-c3ccccc3)nn2)cc1 | inconclusive [inhibitor, partial curve]
Cc1cccc(-c2nc3cc(NC(=O)C4CCCO4)ccc3o2)c1 (stereo not given) | inconclusive [inhibitor, partial curve]
COc1cccc2cc(C(=O)N3CCN(C45CC6CC(CC(C6)C4)C5)CC3)c(=O)oc12 | inconclusive [inhibitor, partial curve]
CCOC(=O)c1sc(NC(=O)c2ccc(OC)cc2)nc1C | inconclusive [inhibitor, single point]
Cc1ncc(C[n+]2csc(CCOC(=O)CC3C4CC5CC(C4)CC3C5)c2C)c(N)n1 (stereo not given) | inconclusive [inhibitor, single point]
O=C(Cn1c2ccc(F)cc2c2nc3n(c(=O)c21)CCS3)Nc1ccccc1C(F)(F)F | inconclusive [inhibitor, partial curve]
Cc1cccc(-c2nc(NCCCN3CCOCC3)c3ccccc3n2)c1 | inconclusive [inhibitor, single point]
N#C/C(=C\c1cn(CCOc2ccccc2)c2ccccc12)C(=O)NCC1CCCO1 (stereo not given) | inconclusive [inhibitor, partial curve]
CC(=O)N1CCC2(CCCN(c3ccncc3)C2)CC1 | inactive
COCCCN1C(=O)/C(=C/c2ccc(CNS(=O)(=O)c3ccccc3)o2)C(C(=O)OC)=C1C | active: 35.5 µM
Cc1ccc(NC(=O)CSc2nnc(CNC(=O)C34CC5CC(CC(C5)C3)C4)n2-c2ccc(F)cc2)cc1 | inactive
Fc1ccccc1N1CCN(C(c2cccs2)c2nnnn2CCc2ccccc2)CC1 (stereo not given) | inconclusive [inhibitor, single point]
